From publication PMC6919601, “Identification of Plasmodium dipeptidyl aminopeptidase allosteric inhibitors by high throughput screening” (PLoS ONE, 2019)
Values joined by “and” are separate entries in the source; they are usually repeats but may differ in a detail not shown here. Identical values can stand only once. About 230 (0.21%) of roughly 110,000 compounds showed an effect of 50% or more. The list shows a part of the results.

Biological target: DPAP1 (Plasmodium falciparum, UniProt Q8IIJ9)
Sequence (Q8IIJ9 whole entry, looked up): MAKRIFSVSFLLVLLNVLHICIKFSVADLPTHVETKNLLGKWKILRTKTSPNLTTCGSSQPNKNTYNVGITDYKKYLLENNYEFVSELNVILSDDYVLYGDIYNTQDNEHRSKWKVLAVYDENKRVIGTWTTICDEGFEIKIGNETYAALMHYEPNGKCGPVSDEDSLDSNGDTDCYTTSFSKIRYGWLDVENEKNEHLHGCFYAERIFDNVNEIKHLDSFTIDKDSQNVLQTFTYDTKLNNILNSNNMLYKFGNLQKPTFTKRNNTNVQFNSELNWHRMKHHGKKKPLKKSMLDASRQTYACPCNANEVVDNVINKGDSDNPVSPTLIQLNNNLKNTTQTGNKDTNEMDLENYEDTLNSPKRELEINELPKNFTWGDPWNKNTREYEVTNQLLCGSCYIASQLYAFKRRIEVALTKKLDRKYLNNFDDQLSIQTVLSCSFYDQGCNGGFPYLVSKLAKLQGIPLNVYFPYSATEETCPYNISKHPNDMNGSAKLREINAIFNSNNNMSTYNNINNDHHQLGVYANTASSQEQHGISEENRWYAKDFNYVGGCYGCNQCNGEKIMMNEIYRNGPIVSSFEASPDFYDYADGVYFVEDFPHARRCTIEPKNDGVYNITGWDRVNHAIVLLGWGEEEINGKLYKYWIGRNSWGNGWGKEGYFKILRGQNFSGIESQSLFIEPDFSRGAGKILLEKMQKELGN
Assay: primary screen, percent inhibition; read by cleavage of a fluorogenic dipeptide substrate; higher = more effect of the substance
Design: species or system P. falciparum D10 trophozoite lysates; single well
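Note: 30 min substrate incubation versus DMSO and 10 µM JCP410 controls.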

Compound	% Inhibition @ 10 uM
COc1ccccc1/C=C1\CCCC2=C1Nc1nnnn1C2c1ccccc1OC (centres unmarked)	0.0842%
COc1ccc(NC2=C(Cl)C(=O)N(c3cc(Cl)ccc3OC)C2=O)cc1	2.15%
CCc1ccc(OCC(=O)O/N=C(\N)c2ccc(OC)cc2)cc1	3.25%
O=S(=O)(Nc1ccc(S(=O)(=O)N2CCCC2)cc1)c1cc(Cl)ccc1Cl	0.658% and 4.44%
Cc1nn(C(CC(=O)O)C(=O)O)c(C)c1Br (centres unmarked)	2.42%
CCOc1ccccc1CN1CCc2c([nH]c3ccccc23)C1	-6.82%
CCOC(=O)c1nnc(N)s1	-4.46%
O=C1OC(/C=C/c2ccc(Cl)cc2)=NC/1=C/C=C/c1ccccc1	-5.29%
Cc1cccc(C)c1NC(=O)c1cccc(OC(F)F)c1	0.163%
CC1CCCN(S(=O)(=O)c2ccc(S(=O)(=O)N(Cc3ccccc3F)C3CCCC3)cc2)C1 (centres unmarked)	6.7%
Nc1cccc(/C=C/c2nc3cc(N)ccc3[nH]2)c1	3.35%
Cc1c(Cl)cccc1NC(=O)COc1ccc(S(=O)(=O)NCc2ccccc2)cc1	4.44%
Cc1ccc(S(=O)(=O)c2cc3c(=O)n4ccccc4nc3n(CCO)c2=N)cc1	-4.59%
CC(CN1C(C)CCCC1C)OC(=O)c1ccccc1Br (centres unmarked)	-3.86%
COc1ccc(Cl)cc1NC(=O)c1ccc(NC(C)=O)cc1	-1.02%
CCCCn1c(=O)c2oc3ccccc3c2n(CC(N)=O)c1=O	2.49%
CC(C(=O)N1CCc2ccccc2C1)n1sc2ccccc2c1=O (centres unmarked)	-5.15%
COc1ccccc1C(=O)Nc1ccccc1Br	4.92%
CCCCNC(=O)C1CCC(=O)N1Cc1ccc(F)cc1 (centres unmarked)	1.62%
Cc1occc1C(=O)Nc1ccc(C(C)C)cc1	3.81%
O=C(Cn1ncc2c1-c1ccccc1OC2)N1CCC(Cc2ccccc2)CC1	-0.154%
CCc1c(Cc2[nH]c(C)c(C(C)=O)c2C)[nH]c(C(=O)O)c1C	1.26%
O=c1oc2cc(O)ccc2c2ccccc12	10.2%
O=S(=O)(c1ccc(Cl)cc1)n1c(Cc2ccccc2)nc2ccccc21	-2.44%
O=C(Nc1ccc(F)c(Cl)c1)NC1CCCCC1	2.94%
CCC[C@H](N[C@H](C(=O)NC(C)C)c1ccc(-c2ccc(OC)nc2)cc1)C(=O)NC1(C#N)CC1	-4.72%

Compound	% Inhibition @ 10 uM
COc1ccc(S(=O)(=O)N(CC(=O)Nc2ccccc2C)c2ccccc2)cc1OC	-6.3%
Cc1ccc2[nH]c3nc(S)nnc3c2c1	12.4%
COc1ccccc1C(=O)Nc1cccnc1Cl	2.48%
COc1ccc(CC(=O)NC23CC4CC(CC(C4)C2)C3)cc1	-6.17%
CN(Cc1ccccc1)C(=O)CN(C)S(=O)(=O)c1cc(Br)cnc1N	1.68%
O=C1CC(Cc2ccccc2)C(=O)N1c1ncccn1 (centres unmarked)	-5.15%
O=C(Nc1ccc(S(=O)(=O)NCCc2ccccc2)cc1)c1ccc(Br)o1	4.57%
Cc1cc(Cl)ccc1OCC(=O)NCc1ccncc1	-4.37%
CC(C)(C)NC(=O)C1C(=O)CNC23CCCCC2C1c1ccccc1O3 (centres unmarked)	-3.75%
Cc1cc(NCCN2CCOCC2)c2ccc3ccccc3c2n1	-5.85%
Cc1c(C(=O)N2CCN(C)CC2)oc2c3c(ccc12)OCCO3	-0.415%
N#CC1=C(N)Oc2cc(O)ccc2C1c1ccc(Cl)c(Cl)c1 (centres unmarked)	5.08%
COc1ccc(CCNC(=O)c2ccc(CSc3nc4ccncc4[nH]3)cc2)cc1OC	3.4%
CCN(CC)CCNC1CCN(CCc2ccccc2)CC1	-3.8%
CC(C)C(=O)N1CCN(c2ccc(NC(=O)c3ccc(Br)o3)cc2)CC1	-0.519%
Fc1ccc(N2CCN(CCc3ccccc3)CC2)cc1	1.74%
CCOc1ccccc1C1Nc2ccccc2N=C2CC(C)(C)CC(O)=C21 (centres unmarked)	0.687%
Fc1ccc(CSc2ccc(-c3cccs3)nn2)cc1	1.68%
Cc1nc2ccccc2nc1Sc1ccccc1	-1.17%
CC(C)NS(=O)(=O)c1ccc(OCC(=O)Nc2ccc(Br)cc2F)cc1	5.66%
CCOC(=O)N1CCN(C(C)Cc2ccccc2F)CC1 (centres unmarked)	0.472%
Cc1ccccc1OCCCN1CCOCC1	2.13%
O=C1CCCc2c1nc(-c1cccc([N+](=O)[O-])c1)n2O	0.247%
CC(c1ccccc1)N1CC(C(=O)NC2CCCC2)CC1=O (centres unmarked)	-1.21%
O=C(c1n[nH]cc1[N+](=O)[O-])N1CCOCC1	5.77%
CC1CCN(S(=O)(=O)c2ccc(Cl)cc2)CC1	-4.4%

Compound	% Inhibition @ 10 uM
COc1cc(OC)c([N+](=O)[O-])nc1OC	4.22%
COC(=O)c1sc2nc(C)c([N+](=O)[O-])c(C)c2c1N	0.51%
Cc1cc(C(=O)NCCN2CCOCC2)c2c(C)nn(-c3cccc(Cl)c3C)c2n1	1.5%
CCCC(C)C1(CC)C(=O)N=C(Nc2ccccc2C)NC1=O (centres unmarked)	5.39%
Cc1ccccc1OCc1nn2c(-c3cccc(Cl)c3)nnc2s1	6.01%
CCC(NC(=O)NCCc1ccccc1)(C(F)(F)F)C(F)(F)F	-6.84%
OCC1CCCN(Cc2ccc(F)c(F)c2)C1 (centres unmarked)	-1.5%
Cc1cc2c(cc1C)NC(c1ccsc1)C1=C(O)CC(C)(C)CC1=N2 (centres unmarked)	2.46%
COc1cccc2cc(C(=O)O)c(=O)oc12	-11.5%
COc1ccc(C(=O)N2CCN(Cc3ccc(C)cc3)CC2)cc1OC	-1.11%
CCN(CC)C(=O)Cn1nnc(-c2cc(OC)c(OC)c(OC)c2)n1	0.9%
O=C(c1ccccc1)c1ccccc1C(=O)N1CCOCC1	-2.39%
C=C(C)CN(CC)C1CCN(CCC)CC1	-4.14%
CCOc1cc(C2C(C#N)=C(N)Oc3cc4c(cc32)OCO4)ccc1OCc1cccc(F)c1 (centres unmarked)	0.565%
CN(C)c1ccc(CN2CCN(c3cccc(Cl)c3)CC2)cc1	3.8%
COc1ccc(OCCCCN2CCOCC2)cc1	-3.94%
COc1ccc(/C=C/C(=O)O)cc1S(=O)(=O)NCc1cccnc1	0.147%
CN(C)CCNC(=O)c1cn(C2CCCCC2)c(=O)c2c1c1ccccc1n2C	-3.39%
COc1ccc(S(=O)(=O)NCCc2ccc(OC)c(OC)c2)cc1	1.57%
CCC(C)NC(=O)c1cnn2c1NC(c1ccc(Br)cc1)CC2C(F)(F)F (centres unmarked)	3.8%
Oc1nc2c(s1)C1c3c(ccc4ccccc34)OCC1CS2 (centres unmarked)	4.32%
Cc1cc(-c2ccc(C)c(S(=O)(=O)Nc3ccc(Cl)cn3)c2)on1	2.35%
O=C(c1oc(=O)c2ccccc2c1-c1ccccc1)N1CCN(C2CCCCC2)CC1	-3.58%
CC(C)c1ccc(OCc2ccc(C(=O)N(C)C)o2)cc1	-1.55%
Cc1ccc(C(=O)Nc2sc3c(c2C#N)CCCC3)cc1S(=O)(=O)N1CCCC1	0.746%
Cc1ccc(S(=O)(=O)N2CCN(C(=O)c3ccccc3)C2c2ccccc2)cc1 (centres unmarked)	6.11%

Compound	% Inhibition @ 10 uM
O=C(O)C1CCCCC1C(=O)NCc1ccccn1 (centres unmarked)	0.727%
COc1ccc(S(=O)(=O)N(C)CC(=O)NC(C)(C)C)cc1OC	2.44%
Cc1ccc(Cn2c(=O)c3ccccc3n3c(CCC(=O)NCCC4=CCCCC4)nnc23)cc1	3.97%
COc1ccc(-n2c(Cc3cccn3C)nnc2SCC(=O)NCc2ccccc2)cc1	-3.95%
CCCS(=O)(=O)c1c(S(=O)(=O)CCC)c2cc(CC)ccn2c1C(=O)OC	-3.28%
Cc1c(C(=O)N(C)C2CCCCC2)sc2nc(-c3ccccc3)cn12	-0.138%
OCC1CCCCN1Cc1ccc(F)cc1 (centres unmarked)	3.53%
NC1=C(c2nc3ccccc3s2)C(=O)CN1Cc1ccccc1Cl	0.486%
CSc1ncc(C(=O)NCc2cccc(Cl)c2)c(-c2ccccc2)n1	1.11%
COc1ccc(C(=O)Nc2cc(C)ccc2C)cc1OC	2.65%
O=c1oc2cc(-n3nc4ccc5ccccc5c4n3)ccc2cc1-c1ccccc1	3.74%
O=C(Nc1ccccc1C(=O)NC1=NCCS1)c1ccc(Cl)cc1	-2.29%
Cc1ccsc1C(C#N)NC(=O)C(Cc1c(F)cccc1F)NC(=O)c1ccc(-c2ccccc2Cl)cc1 (centres unmarked)	5.76%
O=C(Cn1ncc2c(=O)oc3ccccc3c21)NCC1COc2ccccc2O1 (centres unmarked)	2.39%
CN(Cc1ccccc1)C(=O)CCNS(=O)(=O)c1cc(Br)cnc1N	1.68%
O=C(CC1CC2CCC1C2)NC1CCCCCCC1 (centres unmarked)	1.88%
Cc1ccc(S(=O)(=O)Nc2ccccc2SC(F)F)cc1	5.53%
CCCCN(C)C(=O)/C(=C/c1cn(C)c2ccccc12)NC(=O)c1ccco1	-0.235%
CCN(CC)CCNC(=O)Cn1cnc2sc(C)c(S(=O)(=O)N3CCOCC3)c2c1=O	-2.9%
Cc1ccc(C(=O)/C=c2\[nH]c(=O)/c(=C/c3cccnc3)s2)cc1	-0.828%
Cc1cccc(N2CCN(C(=O)N[C@@H](CC(C)C)C(=O)NCC#N)CC2)c1C	-3.48%
COc1ccc(C2C(C#N)=C(N)Oc3c2c(=O)oc2ccccc32)cc1C (centres unmarked)	5.77%
CCN1CCN(C(=O)c2ccc(Cn3c(SCc4ccccc4F)nc4ccncc43)cc2)CC1	-3.67%
C=CCN1c2ccccc2Oc2nc3ccccc3nc21	0.381%
CCc1ccc(NC(=O)c2csc3c2CCCC3)cc1	-0.132%
Cc1sc(NC(=O)CSc2nc(O)c(C#N)c(-c3ccccc3)n2)nc1-c1ccccc1	0.777%
